Data published in the supplement of paper PMC11417369.
± gives the standard deviation of the averaged measurements. Some of the results follow.

Each sequence was assayed on PfAP2-I AP2 domain 3 (GST-tagged) (assay: gcPBM binding intensity (ln(normalized median fluorescence intensity)); higher = stronger DNA binding).
Summary of the method: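 GST-tagged P. falciparum DNA-binding domains produced in E. coli were incubated for 1 h on an Agilent 4 × 180k array of primer-extended double-stranded 36-bp intergenic genomic probes with negative controls. Binding intensity is the highest Masliner-normalised natural-log median intensity across replicate spots of either probe orientation, with bound protein detected by Alexa488 anti-GST antibody at 488 nm.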
For “GGTGGCTAAATTACAACACACGACGGAATATTATAT [CACACA_site4114]”, the “gcPBM binding intensity (ln)” value was 8.29 ± 0.33.
In the case of “AATATATGGTTTCATTATATTAAATTCAATTTAATG [CACACA_negctrl_site675]”, the “gcPBM binding intensity (ln)” value is reported as 7.38 ± 0.49.
“ACCGTGGGAAGACACACACACACACCCACATATATA [CACACA_site333]” was tested, and the “gcPBM binding intensity (ln)” value was 8.24 ± 0.78.
In the case of “TTTTATTCATTGAGCACACAAAATAAATTATCAAAA [CACACA_site3279]”, the “gcPBM binding intensity (ln)” value is reported as 8.39 ± 0.028.
With “AGTATATAATAATTTACACACAAAAAAATATCAGGA [CACACA_site3517]” the “gcPBM binding intensity (ln)” value was 7.82 ± 0.59.
“TGATTTATCTATATTTTATAAGTTATTTATTTTTTT [CACACA_negctrl_site1603]” was tested, and the “gcPBM binding intensity (ln)” value was 7.05 ± 0.4.
For “TTTTATAATGTTGTAGTGCAAAATACGTATATTTAT [GTGCAC_site9826]”, the “gcPBM binding intensity (ln)” value was 10.3 ± 0.36.
For “AATAAATATATGTACACACACAAATATATACATATC [CACACA_site1903]”, the “gcPBM binding intensity (ln)” value was 8.04 ± 0.29.
In the case of “GAAAATTATATGTGTTGTACACTTGCAACAACTATT [XGTACX_site3637]”, the “gcPBM binding intensity (ln)” value is reported as 7.74 ± 0.51.
With “AAAATATATATTAACACACACACAAAAAAAAAAAAA [CACACA_site1325]” the “gcPBM binding intensity (ln)” value was 7.99 ± 0.64.
With “AGATATAAGAAAAGCACACACACACCCAAAAAAAAA [CACACA_site2826]” the “gcPBM binding intensity (ln)” value was 8.66 ± 0.38.
In the case of “TGGAGGATAGTTCACAGTACCCAGTAACTCTACGGA [XGTACX_site4930]”, the “gcPBM binding intensity (ln)” value is reported as 7.36 ± 0.61.
“AAAGTATAAATAAATACACACATATATATATATATA [CACACA_site2892]” was tested, and the “gcPBM binding intensity (ln)” value was 9.32 ± 0.33.
For “AACCATAACTCATATGCACACATAAATATTACATAT [CACACA_site9273]”, the “gcPBM binding intensity (ln)” value was 8.81 ± 0.42.
For “TACATTCGGAGTAAAAAAAAATTTATACAATTACTT [XGTACX_negctrl_site29]”, the “gcPBM binding intensity (ln)” value was 7.38 ± 0.73.
“TGTGTATATAAATAATGTACATATATATTTTTTTAT [XGTACX_site7341]” was tested, and the “gcPBM binding intensity (ln)” value was 7.79 ± 0.22.
“GTAAAAAAAAAAAAAAGTACATTATACATATATTTA [XGTACX_site5447]” was tested, and the “gcPBM binding intensity (ln)” value was 7.53 ± 0.12.
With “AAAAATGTATGTATGGTGCAGTATTCATATCATTTT [GTGCAC_site9458]” the “gcPBM binding intensity (ln)” value was 10.93 ± 0.057.
“AAAATGAACAAACACACACACATATATATATATATA [CACACA_site2403]” was tested, and the “gcPBM binding intensity (ln)” value was 9.33 ± 0.31.
For “TTATTGTGTAAGATGATTTTCTTCGTCACTTTGAAA [CACACA_negctrl_site1814]”, the “gcPBM binding intensity (ln)” value was 7.12 ± 0.48.
With “TCTTGAAAAAGAATCAATCGGTCGACAAAAAAAAAA [CACACA_negctrl_site1099]” the “gcPBM binding intensity (ln)” value was 8.34 ± 0.64.
For “AAAAAACACTTAAGGTGTACCTTTTAATATAAGTAT [XGTACX_site2397]”, the “gcPBM binding intensity (ln)” value was 7.68 ± 0.57.
“ATATTCTTGTTTAATACACACTGTAGTATTATAGAT [CACACA_site6341]” was tested, and the “gcPBM binding intensity (ln)” value was 7.91 ± 0.62.
For “TTTTTTAATATTTATTAATTAAACTTTGTTTTTGTT [XGTACX_negctrl_site454]”, the “gcPBM binding intensity (ln)” value was 7.25 ± 0.61.
